Data published in patent US12371507B2, “CDCP1 antibodies and antibody drug conjugates” (Beth Israel Deaconess Medical Center, priority 2018, dated 2025).

B1: antibody 23: anti-CDCP1 antibody; heavy chain SEQ ID NO: 51, light chain SEQ ID NO: 58 (antibody)
heavy: QVQLVQSGAEVKKPGSSVKVSCKASGGTFSSYAISWVRQAPGQGLEWMGGIIPIFGTANYAQKFQGRVTITADKSTSTAYMELSSLRSEDTAVYYCARDPTYFDWTRRGYYYMDVWGKGTTVTVSS[left out - human IgG1 constant region]
light: SYELTQPPSVSVSPGQTARITCSGDALPKKYAYWYQQKSGQAPVLVIYEDSKRPSGIPERFSGSSSGTMATLTISGARVEDEADYYCYSTDSSDNHRKGFGGGTKLTVLGQPKAAPSVTLFPPSSEELQANKATLVCLISDFYPGAVTVAWKADSSPVKAGVETTTPSKQSNNKYAASSYLSLTPEQWKSHRSYSCQVTHEGSTVEKTVAPTECS
B2: antibody 76: activating anti-CDCP1 antibody; heavy chain SEQ ID NO: 51, light chain SEQ ID NO: 74 (antibody)
heavy: B1 heavy
light: B1 light with Y33F, R60K, R78Q, H96P, K98G, G99V
B3: antibody 24: non-activating anti-CDCP1 antibody; heavy chain SEQ ID NO: 64, light chain SEQ ID NO: 70 (antibody)
heavy: QVQLVESGGGVVQPGRSLRLSCAASGFTFSSYGMHWVRQAPGKGLEWVAVISYDGSNKYYADSVKGRFTISRDNSKNTLYLQMNSLRAEDTAVYYCARGVGLPDIWGQGTMVTVSS[left out - human IgG1 constant region]
light: EIVMTQSPDTLSLSPGERATLSCRASQKIYYSYLAWYQQKPGQAPRLLISGASTRASDISDRFSGGGSGTDFTLTINSLESEDAAVYYCQQYDSLPVTFGRGTKLEIKRTVAAPSVFIFPPSDEQLKSGTASVVCLLNNFYPREAKVQWKVDNALQSGNSQESVTEQDSKDSTYSLSSTLTLSKADYEKHKVYACEVTHQGLSSPVTKSFNRGEC
B4: CP13E10-291: anti-CDCP1 antibody; heavy chain SEQ ID NO: 46, light chain SEQ ID NO: 17 (antibody)
heavy: EVQLVQSGAEVKKPGASVKVSCKASGYTFTSYYMHWVRQAPGQGLEWMGIINPSGGSTSYAQKFQGRVTMTRDTSTSTVYMELSSLRSEDTAVYYCARDGELRHFDQVYNYHYYMDVWGQGTTVTVSS[left out - human IgG1 constant region]
light: EIVLTQSPATLSLSPGERATLSCRASQSVGSYLAWYQQRPGQAPRLLIYDASNRATGIPARFSGSGSGTDFTLTISSLEPEDFAVYYCQQRANVFTFGQGTKVEIKRTVAAPSVFIFPPSDEQLKSGTASVVCLLNNFYPREAKVQWKVDNALQSGNSQESVTEQDSKDSTYSLSSTLTLSKADYEKHKVYACEVTHQGLSSPVTKSFNRGEC
B5: CP13E10: anti-CDCP1 human IgG1 antibody; heavy chain SEQ ID NO: 10, light chain SEQ ID NO: 17 (antibody)
heavy: B4 heavy with E101V, H104Y, Q107W, V108L, Y109L, N110D, H112Y, Q120K
light: B4 light

Assays:
[1] = tested on: CDCP1 tyrosine phosphorylation; test: CDCP1 activation by short-term antibody treatment (western blot); format: cell-based, human; details: for activating or non-activating antibody: PC3 cells
Experimental: (§1) In a variety of experimental approaches, CDCP1 antibodies also were tested for their ability to activate CDCP1 and its downstream targets. Short-term treatment of cells with antibodies stimulated CDCP1 tyrosine phosphorylation as well as downstream phosphorylation of SFKs and PKCδ in several lung (H1299) and breast cancer (MDA-MB-231) cell lines and a normal breast epithelial (MCF10A) cell line (FIG. 18A-18C).

AKT = test: Basal AKT activity / AKT phosphorylation (western blot); format: cell-based, human; details: for basal AKT activity and AKT substrate phosphorylation: PC3 cells
Experimental: (§2) The effect of CDCP1 antibody treatment on cell migration and invasion was also tested due to the known positive role of CDCP1 in the regulation of these cellular processes. […] In contrast, the treatment of MCF10A and DLD-1 cells with CDCP1 antibody produced an increase in cell migration. The opposite effects of CDCP1 antibodies on processes associated with tumor formation and growth may be due to the contrasting effects of CDCP1-activating antibodies on AKT activity in different cells, since AKT plays a positive role in migration in most cells. CDCP1-activating antibodies reduced the basal AKT phosphorylation (activity) in 1H1299 and H1373 cells, but had no effect on AKT in MCF10A, H1975, and HCT116 cells (FIG. 23A-23B). The contrasting effects of the antibodies on AKT activity in H1299 and MCF10A cells are consistent with their respective effects on cell invasion.
This inhibition was transient after an 80% reduction within 20 min, during prolonged antibody exposure the AKT phosphorylation returned towards the initial levels coincident with a reduction in the expression of CDCP1 protein expression.

[2] = tested on: CDCP1 binding partners in PC3 cells; test: Immunoprecipitation of CDCP1 binding partners with antibodies bound to intact cells; format: cell-based, human; details: 80 min, 4° C.
Experimental: To gain a greater understanding of the biological roles of CDCP1 and effects of CDCP1 antibody treatments, studies were performed to evaluate the involvement of CDCP1 on other downstream proteins and signaling pathways. […] Antibodies were added to intact cells (80 min, 4° C.). Negative control antibody and 24 (5 μg/ml); 76 (20 ng/m).

mouse CDCP1-ECD = target: T1, mouse CDCP1-ECD (Mus musculus, UniProt Q5U462); test: Surface plasmon resonance (Biacore T200) binding kinetics; details: SPR, 25° C.
T1 construct: 6-histidine purification tag (N); made in house; host or cells: HEK293 (transient)
T1 sequence (Q5U462 30-667): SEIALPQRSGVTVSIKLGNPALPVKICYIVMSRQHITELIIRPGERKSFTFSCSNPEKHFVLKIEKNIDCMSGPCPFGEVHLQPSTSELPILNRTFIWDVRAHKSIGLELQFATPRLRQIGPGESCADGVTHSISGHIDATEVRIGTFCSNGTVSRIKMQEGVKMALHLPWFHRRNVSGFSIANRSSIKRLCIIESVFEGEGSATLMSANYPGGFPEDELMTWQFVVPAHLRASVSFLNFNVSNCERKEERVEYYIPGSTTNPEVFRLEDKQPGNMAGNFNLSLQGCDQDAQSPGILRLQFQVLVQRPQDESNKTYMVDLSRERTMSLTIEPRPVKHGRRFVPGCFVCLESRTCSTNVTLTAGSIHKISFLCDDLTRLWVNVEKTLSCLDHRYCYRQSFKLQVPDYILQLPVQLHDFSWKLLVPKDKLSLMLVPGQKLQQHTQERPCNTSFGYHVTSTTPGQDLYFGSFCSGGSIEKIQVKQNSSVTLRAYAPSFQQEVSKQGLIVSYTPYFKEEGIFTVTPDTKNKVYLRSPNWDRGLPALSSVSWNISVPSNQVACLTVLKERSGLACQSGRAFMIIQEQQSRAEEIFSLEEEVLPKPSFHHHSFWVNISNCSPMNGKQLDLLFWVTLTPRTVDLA
Experimental: Specifically, the binding kinetics of anti-CDCP1 antibodies against recombinant human, cynomologus monkey and mouse CDCP1-ECD were determined using surface plasmon resonance (SPR) and a Biacore T200 instrument (GE Healthcare). An anti-human IgG antibody was amine coupled onto a CM5 carboxymethylated dextran sensor chip surface (GE Healthcare), using the manufacturer's recommendations, to densities of approximately 10,000-13,000 response units (RU). Each anti-CDCP1 antibody was diluted to 0.5 pg/mL in 10 mM HEPES pH 7.4, 0.15 M NaCl, 3 mM EDTA, 0.05% P-20 (HBS-EP+) and captured for about 20-23 seconds at a flow rate of 10 μL/min. Four 3-fold dilutions of CDCP1-ECD, ranging from 1,800 nM to 66.7 nM, were injected at a flow rate of 50 μLs/minute, associated for 54 seconds, and dissociated for 90 seconds. The sensorchip surface was regenerated with three 30 second pulses of 3M MgCl2 at a flow rate of 50 μL/minute. All injections used HBS-EP+ as both the running and sample buffer and were performed at 25° C. with a data collection rate of 1 Hz. Sensorgrams were double referenced by using both a control surface and buffer injections. Rate constants were determined by fitting the data to a 1:1 model with Biacore T200 evaluation software v3.0 and the equation KD=kd/ka.

[3] = tested on: CDCP1 expression and phosphorylation; test: CDCP1 degradation by prolonged antibody treatment (western blot); format: cell-based, human; details: MDA-MB-231, MDA-MB-468 and H1299 cells
Experimental: as §1

[4] = tested on: H1299, MDA-MB-231, MCF10A and DLD-1 cells; test: Transwell cell migration assay; format: cell-based, human; details: MDA-MB-231 and H1299 cells
Experimental: (§3) The effect of CDCP1 antibody treatment on cell migration and invasion was also tested due to the known positive role of CDCP1 in the regulation of these cellular processes.
as §2

[5] = tested on: H1299 and MDA-MB-231 cells; test: Three-dimensional (3D Matrigel) tumor cell invasion assay; format: cell-based, human; details: MDA-MB-231 and H1299 cells
Experimental: as §3, §2

[6] = Analytical Hydrophobic Interaction Chromatography (HIC), relative hydrophobicity by elution time; format: physicochemical; details: TSKgel Butyl-NPR column, 1.5 M to 0 M ammonium sulfate gradient
Excerpt: Multi-parametric optimization of anti-CDCP1 antibody CP13E10 was facilitated using rational design engineering. The structure of CP13E10 Fab in complex with CDCP1-ECD was solved with 1.9 Å resolution and used to design rational phage display libraries to enable identification of CP13E10 variants with improved biophysical properties while maintaining CDCP1 binding properties. CP13E10 antibody hydrophobicity was reduced to facilitate efficient conjugation processes for producing antibody drug conjugates (ADCs) by incorporating three point mutations (Y(H100)H, W(H100C)H, Y(H100H)H) into CP13E10 CDRH3 (CP13E10-34 variant). Protein for characterization was generated by transiently transfecting DNA encoding the anti-CP13E10-34 antibody variant and parental CP13E10 antibody into HEK-293 cells and the resultant protein was Protein-A affinity purified and buffer exchanged into PBS-CMF pH7.2 using G-25 columns.

Row | Molecule | activating or non-activating antibody [1] | basal AKT activity (AKT; H1373 and H1299 cells) | basal AKT activity (AKT; MCF10A, H1975 and HCT116 cells) | basal AKT activity and AKT substrate phosphorylation (AKT) | non-preferential partner binding [2] | preferential CDCP1 partner binding [2] | fold increase in affinity for mouse CDCP1 versus CP13E10-34 (mouse CDCP1-ECD) | CDCP1 activation ([1]; short-term (5 min) treatment, H1299, MDA-MB-231 and MCF10A cells) | CDCP1 degradation [3] | cell migration [4] | cell invasion [5] | HIC elution time [6]
1 | B1 | activating | decrease | no effect | reduce basal AKT activity and AKT substrate phosphorylation |  |  |  |  |  |  |  | 
2 | B2 | activating |  |  | reduce basal AKT activity and AKT substrate phosphorylation | β-Catenin, Transferrin Receptor, Importin-7 | SRC, PPP4R2 |  |  |  |  |  | 
3 | B3 | non-activating |  |  | does not affect P-AKT | β-Catenin, Transferrin Receptor, Importin-7 | PARG1 |  |  |  |  |  | 
4 | B4 | activating | decrease | no effect | reduce basal AKT activity and AKT substrate phosphorylation |  |  | 14 fold | CDCP1 activation | CDCP1 degradation | reduce | decrease | 
5 | B5 |  |  |  |  |  |  |  |  |  |  |  | 48.63 min

Residue numbers refer to the chain shown, from its start.
